# Experimental data taken from the supplement of paper PMC8728848.
# This is one part of the list.
# B1: E-Selectin (Homo sapiens), P16581 (protein)
# chain: MIASQFLSALTLVLLIKESGAWSYNTSTEAMTYDEASAYCQQRYTHLVAIQNKEEIEYLNSILSYSPSYYWIGIRKVNNVWVWVGTQKPLTEEAKNWAPGEPNNRQKDEDCVEIYIKREKDVGMWNDERCSKKKLALCYTAACTNTSCSGHGECVETINNYTCKCDPGFSGLKCEQIVNCTALESPEHGSLVCSHPLGNFSYNSSCSISCDRGYLPSSMETMQCMSSGEWSAPIPACNVVECDAVTNPANGFVECFQNPGSFPWNTTCTFDCEEGFELMGAQSLQCTSSGNWDNEKPTCKAVTCRAVRQPQNGSVRCSHSPAGEFTFKSSCNFTCEEGFMLQGPAQVECTTQGQWTQQIPVCEAFQCTALSNPERGYMNCLPSASGSFRYGSSCEFSCEQGFVLKGSKRLQCGPTGEWDNEKPTCEAVRCDAVHQPPKGLVRCAHSPIGEFTYKSSCAFSCEEGFELHGSTQLECTSQGQWTEEVPSCQVVKCSSLAVPGKINMSCSGEPVFGTVCKFACPEGWTLNGSAARTCGATGHWSGLLPTCEAPTESNIPLVAGLSAAGLSLLTLAPFLLWLRKCLRKAKKFVPASSCQSLESDGSYQKPSYIL
# Columns and labels:
# Test in all cases: glycan array binding signal (z-score within array); higher = stronger binding
# Conditions in all cases: glycan notation: IUPAC condensed, linker removed
# [1] = target: Fuc(a1-3)[Gal3S(b1-4)]GlcNAc6S
# In short: (§1)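 From the Consortium for Functional Glycomics database, 3228 arrays were curated, keeping only those whose protein sequence was available. Binding is given as a within-array Z-score averaged across arrays sharing a protein sequence and across linkers. Negative Z-scores can be read as non-binding.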
# [2] = target: Fuc(a1-3)[GalNAc(b1-4)]GlcNAc
# In short: as §1
# Fuc(a1-4)GlcNAc = target: Fuc(a1-4)GlcNAc
# In short: as §1
# Fuc(b1-3)GlcNAc = target: Fuc(b1-3)GlcNAc
# In short: as §1
# Gal(a1-2)Gal = target: Gal(a1-2)Gal
# In short: as §1
# Gal(a1-3)Gal = target: Gal(a1-3)Gal
# In short: as §1
# Gal(a1-3)Gal(b1-3)GlcNAc = target: Gal(a1-3)Gal(b1-3)GlcNAc
# In short: as §1
# Gal(a1-3)Gal(b1-4)Glc = target: Gal(a1-3)Gal(b1-4)Glc
# In short: as §1
# Gal(a1-3)Gal(b1-4)GlcNAc = target: Gal(a1-3)Gal(b1-4)GlcNAc
# In short: as §1
# [3] = target: Gal(a1-3)Gal(b1-4)[Fuc(a1-3)]GlcNAc
# In short: as §1
# Gal(a1-3)GalNAc = target: Gal(a1-3)GalNAc
# In short: as §1
# [4] = target: Gal(a1-3)[Gal(a1-4)]Gal(b1-4)GlcNAc
# In short: as §1
# Gal(a1-4)Gal(b1-4)Glc = target: Gal(a1-4)Gal(b1-4)Glc
# In short: as §1
# Gal(a1-4)Gal(b1-4)GlcNAc = target: Gal(a1-4)Gal(b1-4)GlcNAc
# In short: as §1
# Gal(a1-4)GlcNAc = target: Gal(a1-4)GlcNAc
# In short: as §1
# Gal(a1-6)Glc = target: Gal(a1-6)Glc
# In short: as §1
# Gal(b1-2)Gal = target: Gal(b1-2)Gal
# In short: as §1
# Gal(b1-3)Gal = target: Gal(b1-3)Gal
# In short: as §1
# Gal(b1-3)Gal(b1-4)GlcNAc = target: Gal(b1-3)Gal(b1-4)GlcNAc
# In short: as §1
# Gal(b1-3)GalNAc = target: Gal(b1-3)GalNAc
# In short: as §1
# [5] = target: Gal(b1-3)GalNAc(b1-3)Gal(a1-4)Gal(b1-4)Glc
# In short: as §1
# [6] = target: Gal(b1-3)GalNAc(b1-4)Gal(b1-4)Glc
# In short: as §1
# [7] = target: Gal(b1-3)GalNAc(b1-4)[Neu5Ac(a2-3)]Gal(b1-4)Glc
# In short: as §1
# Gal(b1-3)GlcNAc = target: Gal(b1-3)GlcNAc
# In short: as §1
# [8] = target: Gal(b1-3)GlcNAc(b1-2)Man(a1-3)[Gal(b1-3)GlcNAc(b1-2)Man(a1-6)]Man(b1-4)GlcNAc(b1-4)GlcNAc
# In short: as §1
# [9] = target: Gal(b1-3)GlcNAc(b1-3)Gal(b1-3)GlcNAc
# In short: as §1
# [10] = target: Gal(b1-3)GlcNAc(b1-3)Gal(b1-4)Glc
# In short: as §1
# [11] = target: Gal(b1-3)GlcNAc(b1-3)Gal(b1-4)GlcNAc
# In short: as §1
# [12] = target: Gal(b1-3)[Fuc(a1-4)]GlcNAc
# In short: as §1
# [13] = target: Gal(b1-3)[Fuc(a1-4)]GlcNAc(b1-3)Gal(b1-3)[Fuc(a1-4)]GlcNAc
# In short: as §1
# [14] = target: Gal(b1-3)[Fuc(a1-4)]GlcNAc(b1-3)Gal(b1-4)GlcNAc
# In short: as §1
# [15] = target: Gal(b1-3)[Fuc(a1-4)]GlcNAc(b1-3)Gal(b1-4)[Fuc(a1-3)]GlcNAc
# In short: as §1
# [16] = target: Gal(b1-3)[GlcNAc(b1-6)]GalNAc
# In short: as §1
# [17] = target: Gal(b1-3)[Neu5Ac(a2-6)]GalNAc
# In short: as §1
# [18] = target: Gal(b1-3)[Neu5Ac(a2-6)]GlcNAc(b1-6)Gal(b1-4)Glc
# In short: as §1
# [19] = target: Gal(b1-3)[Neu5Ac(b2-6)]GalNAc
# In short: as §1
# [20] = target: Gal(b1-4)GalNAc(a1-3)[Fuc(a1-2)]Gal(b1-4)GlcNAc
# In short: as §1
# [21] = target: Gal(b1-4)GalNAc(b1-3)[Fuc(a1-2)]Gal(b1-4)GlcNAc
# In short: as §1
# Gal(b1-4)Glc = target: Gal(b1-4)Glc
# In short: as §1
# Gal(b1-4)Glc6S = target: Gal(b1-4)Glc6S
# In short: as §1
# Gal(b1-4)GlcNAc = target: Gal(b1-4)GlcNAc
# In short: as §1
# [22] = target: Gal(b1-4)GlcNAc(a1-6)Gal(b1-4)GlcNAc
# In short: as §1
# [23] = target: Gal(b1-4)GlcNAc(b1-2)Man(a1-3)[Gal(b1-4)GlcNAc(b1-2)Man(a1-6)]Man(b1-4)GlcNAc(b1-4)GlcNAc
# In short: as §1
# [24] = target: Gal(b1-4)GlcNAc(b1-3)Gal(b1-3)GlcNAc
# In short: as §1
# [25] = target: Gal(b1-4)GlcNAc(b1-3)Gal(b1-4)Glc
# In short: as §1
binder,measurement,setting,value
B1,glycan array binding signal (z-score),[1],0.687
same,glycan array binding signal (z-score),[2],-0.24
same,glycan array binding signal (z-score),Fuc(a1-4)GlcNAc,-0.173
same,glycan array binding signal (z-score),Fuc(b1-3)GlcNAc,-0.173
same,glycan array binding signal (z-score),Gal(a1-2)Gal,-0.263
same,glycan array binding signal (z-score),Gal(a1-3)Gal,0.359
same,glycan array binding signal (z-score),Gal(a1-3)Gal(b1-3)GlcNAc,-0.238
same,glycan array binding signal (z-score),Gal(a1-3)Gal(b1-4)Glc,-0.247
same,glycan array binding signal (z-score),Gal(a1-3)Gal(b1-4)GlcNAc,-0.209
same,glycan array binding signal (z-score),[3],-0.185
same,glycan array binding signal (z-score),Gal(a1-3)GalNAc,-0.172
same,glycan array binding signal (z-score),[4],-0.265
same,glycan array binding signal (z-score),Gal(a1-4)Gal(b1-4)Glc,-0.061
same,glycan array binding signal (z-score),Gal(a1-4)Gal(b1-4)GlcNAc,-0.114
same,glycan array binding signal (z-score),Gal(a1-4)GlcNAc,-0.127
same,glycan array binding signal (z-score),Gal(a1-6)Glc,-0.112
same,glycan array binding signal (z-score),Gal(b1-2)Gal,-0.172
same,glycan array binding signal (z-score),Gal(b1-3)Gal,-0.183
same,glycan array binding signal (z-score),Gal(b1-3)Gal(b1-4)GlcNAc,-0.311
same,glycan array binding signal (z-score),Gal(b1-3)GalNAc,-0.291
same,glycan array binding signal (z-score),[5],-0.194
same,glycan array binding signal (z-score),[6],-0.14
same,glycan array binding signal (z-score),[7],-0.141
same,glycan array binding signal (z-score),Gal(b1-3)GlcNAc,-0.238
same,glycan array binding signal (z-score),[8],-0.421
same,glycan array binding signal (z-score),[9],-0.26
same,glycan array binding signal (z-score),[10],-0.226
same,glycan array binding signal (z-score),[11],-0.181
same,glycan array binding signal (z-score),[12],-0.191
same,glycan array binding signal (z-score),[13],-0.171
same,glycan array binding signal (z-score),[14],-0.214
same,glycan array binding signal (z-score),[15],-0.082
same,glycan array binding signal (z-score),[16],-0.208
same,glycan array binding signal (z-score),[17],-0.234
same,glycan array binding signal (z-score),[18],-0.147
same,glycan array binding signal (z-score),[19],-0.168
same,glycan array binding signal (z-score),[20],-0.275
same,glycan array binding signal (z-score),[21],-0.285
same,glycan array binding signal (z-score),Gal(b1-4)Glc,-0.251
same,glycan array binding signal (z-score),Gal(b1-4)Glc6S,0.01
same,glycan array binding signal (z-score),Gal(b1-4)GlcNAc,-0.195
same,glycan array binding signal (z-score),[22],-0.222
same,glycan array binding signal (z-score),[23],-0.189
same,glycan array binding signal (z-score),[24],0.024
same,glycan array binding signal (z-score),[25],-0.075
